Consider 42 molecules from ChEMBL document CHEMBL4888484, “Replenishing the malaria drug discovery pipeline: Screening and hit evaluation of the MMV Hit Generation Library 1 (HGL1) against asexual blood stage Plasmodium falciparum ,using a nano luciferase reporter read-out” (2022).

Structures are written as SMILES. About 540 (0.36%) of roughly 150,000 compounds showed an effect of 50% or more. The list shows a part of the results.

The test system of the assay is Plasmodium falciparum. Description: Primary screen in NF54 nanoGlo assay, in single point, at 2uM, 72h; a lower Z score goes with more inhibition. The assay is classed as functional, Erythrocyte. As to conditions: timepoint 72 hour.
Regarding `Cc1cnn(CCNC(=O)C2(C)COC2)c1`, the “% Inhibition” value is recorded as -9% and the Z score stood at 1.52.
The matching figures for `CCCNC(=O)N(CC(=O)N1CCN(c2ccc(-c3ccc(OC)c(OC)c3)nn2)CC1)C[C@H]1CCCO1`: -8% and 1.31.
For `CCOc1ccc(CC(=O)N2CC[C@H](c3nc4ccncc4n3C(C)C)C2)cc1`, the “% Inhibition” value was -19% and the Z score worked out at 1.82.
As to `CN(C)c1nc(N)nc(CN(C)[C@H](c2ccc(F)cc2)C2CC2)n1`, the “% Inhibition” value was 7% and the Z score is -0.92.
The matching figures for `Cc1ccc(-c2nnc([C@H](C)Nc3cnn(CC(F)(F)F)c3)o2)cc1`: 4% and -0.59.
The matching figures for `O=C1NCCCN1C1CCN(Cc2ccc(Cl)c(C(F)(F)F)c2)CC1`: 10% and -1.75.
As for `CCn1ccnc1[C@H]1OCCC[C@@H]1NC(=O)c1csc2cncn12`, the “% Inhibition” value is recorded as -13% and the Z score is 2.51.
Consider `COc1ccc(C(=O)NC(C)CCC2CCCO2)c(O)c1` (centres undefined), for which the “% Inhibition” value is -12% and the Z score is reported as 1.84.
The matching figures for `CN(C(=O)N1CC[C@H](OC(F)F)C1)c1ccc(F)cc1`: -31% and 3.66.
For `CN1CC(C(=O)N2CC3CC=CCC3C2)CC1=O` (centres undefined), the “% Inhibition” value is -18% and the Z score is listed as 2.42.
Consider `COC[C@@H]1CN(c2cnccn2)C[C@H]1C(=O)NC(C)C`, for which the “% Inhibition” value is recorded as -8% and the Z score was 1.19.
Consider `Cc1n[nH]c(C)c1CNC(=O)N[C@@H](C)c1ccc(F)cc1`, for which the “% Inhibition” value was -12% and the Z score was determined as 2.37.
`CN(C(=O)[C@H]1CCCOC1)c1ncccc1C#N`: the “% Inhibition” value was -6% and the Z score stood at 0.95.
Take `CC(C)Cn1c(=O)c2sccc2n(CC(=O)N2CCCC2)c1=O`: the “% Inhibition” value is listed as 37% and the Z score is given as -5.42.
The matching figures for `COc1ccc2nc(O)c(-c3nc4ccccn4c3Nc3ccc(C)cc3C)cc2c1`: -7% and 0.9.
For the molecule `COc1ccc2c(c1)CCCN2C(=O)COC(=O)c1cc(=O)c2c(C)nn(C)c2[nH]1`, the “% Inhibition” value is -3% and the Z score was 0.6.
With `O=C(NC(CC1CCCO1)C(F)(F)F)c1cc2n(n1)CCCO2` (centres undefined), the “% Inhibition” value is recorded as -17% and the Z score was determined as 2.01.
The matching figures for `O=C1CN(C(=O)c2ccc3c(c2)n(CC2CC2)c(=O)n3C2CCCCC2)CCN1`: -10% and 0.96.
Regarding `Cn1c(=O)sc2cc(NS(=O)(=O)c3ccc(C4CCCCC4)cc3)ccc21`, the “% Inhibition” value came to 7% and the Z score is recorded as -0.91.
The matching figures for `CC(C)C(=O)N1C[C@H](CNC(=O)OC(C)(C)C)C2(CCOCC2)C1`: -7% and 0.85.
Regarding `Cc1ccccc1NC(=O)N1CCC(N2CCC(CC3CC3)(C(N)=O)CC2)CC1`, the “% Inhibition” value was determined as 7% and the Z score is on record as -0.93.
With `CCN(Cc1nc2c(s1)C[C@@H](C)CC2)C(=O)Cn1cnnn1`, the “% Inhibition” value turned out to be 3% and the Z score is recorded as -0.57.
The matching figures for `O=C(NCC[C@H]1CCC(F)(F)C1)Nc1cnnn1-c1ccccc1`: -2% and 0.34.
Turning to `COc1ccc(Oc2nc(N3CCCC3)c(Cl)c3c2N(Cc2ccccc2)CCS3(=O)=O)cc1`, the “% Inhibition” value worked out at 10% and the Z score is reported as -1.09.
The matching figures for `Cc1n(CC(=O)c2ccccc2)c2ccccc2[n+]1CC(=O)c1ccccc1`: 59% and -12.26.
In the case of `COc1ccc(-c2noc(-c3cccn3CC(N)=O)n2)cc1OC`, the “% Inhibition” value was determined as 0% and the Z score worked out at 0.06.
Regarding `C1=CC[C@@H](c2cn(Cc3ccc4c(c3)CCCO4)nn2)CC1`, the “% Inhibition” value was -9% and the Z score was determined as 1.72.
`N#CCCn1cc(CNCCOc2ccccc2F)c2ccccc21`: the “% Inhibition” value is listed as -2% and the Z score was found to be 0.3.
`Cc1ccc([C@@H](C)Cc2cn(CCC(=O)N3CCCC3)nn2)o1`: the “% Inhibition” value is given as -11% and the Z score is listed as 2.09.
Turning to `CN1CCN(S(=O)(=O)c2cccc(Cl)c2)C[C@]12CCNC(=O)CC2`, the “% Inhibition” value was found to be 3% and the Z score is on record as -0.5.
The matching figures for `Cc1noc(C)c1S(=O)(=O)Nc1cc(-c2cccs2)n[nH]1`: -12% and 1.25.
The matching figures for `Cc1cc(CN(C)Cc2cc(-c3ccc(C)o3)n[nH]2)on1`: -15% and 1.46.
The matching figures for `Cc1nc2c(C(=O)N3C[C@H](C)OC4(CCC4)C3)cccc2o1`: -12% and 1.5.
As to `CN(Cc1csc(-c2cccs2)n1)C(=O)c1cnn2ccccc12`, the “% Inhibition” value is given as -4% and the Z score is given as 0.7.
With `O=C(c1cnc(N2CCOCC2)nc1)N1C[C@@H]2[C@H]3CC[C@H](CC3)[C@@H]2C1`, the “% Inhibition” value was -12% and the Z score worked out at 2.09.
In the case of `Cn1cc(S(=O)(=O)N2CCC[C@@H]2CN2CCCC2)c(C(F)(F)F)n1`, the “% Inhibition” value is on record as 19% and the Z score was -2.37.
Turning to `O=C1CC[C@@H]2CN(c3ncccn3)CC[C@@H]2N1CCc1cccs1`, the “% Inhibition” value was found to be 3% and the Z score is listed as -0.55.
The matching figures for `O=C(C1CC1)C1CN(C(=O)C2CC2c2ccccc2C(F)(F)F)CCO1` (centres undefined): 4% and -0.62.
The matching figures for `CNC(=O)[C@H]1CCN(Cc2ncc(C(F)(F)F)s2)C1`: -7% and 0.94.
The matching figures for `NC(=O)[C@]12CCC[C@H]1CN(C(=O)Cc1cccc3ncccc13)C2`: -7% and 0.93.
Consider `Cc1cc(CN2C[C@H]3CN(C(=O)C(C)C)C[C@@]3(CO)C2)n(C)n1`, for which the “% Inhibition” value was 11% and the Z score is on record as -1.42.
The matching figures for `CN(CCC#N)C(=O)CNc1c(F)cc(F)cc1Br`: -5% and 0.45.

Broadly, the % Inhibition is the change of the read-out against control, counted positive when it falls.
